Laboratory results reported in PubChem BioAssay (NCATS).
“And” between values parts separate entries of the source, which are not always exact repeats. Equal values may be shown once. The list shows a part of the results. Shown are side measurements of this screen, not its main read-out; they come without a call. The list favours compounds with an active or inconclusive main result. Potencies come from curve fits of mixed quality, noted in brackets.

Assay: qHTS Assay for Lipid Storage Modulators (AID 1519)
Settings: Drosophila S3 cells, BODIPY lipid droplet/cell ratio, laser cytometry, cells loaded with oleic acid
How it was run: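 Cells seeded at 5,000 per well were treated with compounds over a concentration series and loaded with oleic acid (400 uM, as added). Lipid droplet fluorescence (488 nm excitation, 500-530 nm channel) was read by laser-scanning cytometry and normalized to 20 uM Triacsin C.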

[1] = measured here: cell count channel max response
[2] = measured here: cell number channel AC50
[3] = measured here: lipid (BODIPY) channel AC50
[4] = measured here: lipid channel max response
Tags describe the fitted curve by direction and shape.

CNC(=O)[C@H]1O[C@H](n2cnc3c(NCc4cccc(I)c4)ncnc32)[C@@H](O)[C@@H]1O
max response [1]: 64.1% | AC50 [2]: 15.8 µM [rising, partial curve, poor fit] | AC50 [3]: 15.8 µM [rising, partial curve, poor fit] | max response [4]: 80%

FC(F)(F)c1ccccc1-c1cncnc1NCc1ccccc1
max response [1]: 32.9% | AC50 [2]: 12.6 µM [rising, partial curve, poor fit] | AC50 [3]: 8.91 µM [rising, partial curve, poor fit] | max response [4]: 38%

Cc1ccccc1-c1cncnc1Nc1ccccc1
max response [1]: 31.9% | AC50 [2]: 2.51 µM [rising, partial curve, poor fit] | AC50 [3]: 1 µM [rising, full curve, poor fit] | max response [4]: 41.1%

N#C/C(=C\c1ccc(O)c(O)c1)C(=O)OCCc1cccs1
max response [1]: 34.1% | AC50 [2]: 10 µM [rising, full curve, poor fit] | AC50 [3]: 7.94 µM [rising, full curve, poor fit] | max response [4]: 36.1%

COc1ccc(-c2coc3ccc(OC4OC(COC(C)=O)C(OC(C)=O)C(OC(C)=O)C4OC(C)=O)c(OC(C)=O)c3c2=O)cc1 (stereo not drawn)
max response [1]: 43.6% | AC50 [2]: 10 µM [rising, partial curve, poor fit] | AC50 [3]: 17.8 µM [rising, partial curve, poor fit] | max response [4]: 50.2%

NCCc1cnc[nH]1
max response [1]: 29.4% and 65.4% | AC50 [2]: 15.8 µM [falling, partial curve, poor fit] | AC50 [3]: 39.8 µM [rising, single point] and 14.1 µM [falling, partial curve, poor fit] | max response [4]: 37% and 66.5%

COc1ccc(-c2nc3cnc(N(C)C)nc3n(Cc3cccs3)c2=O)cc1
max response [1]: 39% | AC50 [2]: 17.8 µM [rising, partial curve, poor fit] | AC50 [3]: 17.8 µM [rising, partial curve, poor fit] | max response [4]: 43.7%

N#Cc1cccc(-c2nc3cnc(N4CCOCC4)nc3n(Cc3ccc(F)cc3)c2=O)c1
max response [1]: 23.7% | AC50 [2]: 0.562 µM [rising, full curve, poor fit] | AC50 [3]: 0.562 µM [rising, full curve, poor fit] | max response [4]: 25.3%

CCOC(OCC)P(=O)(O)CCCNCc1ccc(Cl)c(Cl)c1
max response [1]: 48.5% | AC50 [2]: 35.5 µM [rising, single point] | AC50 [3]: 31.6 µM [rising, partial curve] | max response [4]: 56.5%

CC1(C)CC[C@]2(C(=O)O)CC[C@]3(C)C(=CCC4[C@@]5(C)CC[C@H](O)C(C)(C)C5[C@H](O)C[C@]43C)C2C1 (stereo partly drawn)
max response [1]: 63.1% | AC50 [2]: 7.94 µM [rising, full curve] | AC50 [3]: 7.08 µM [rising, full curve] | max response [4]: 79.5%

Cc1noc(C)c1C(=O)N1CCC2(CCCN(c3ccccn3)C2)CC1
max response [1]: 28.4% | AC50 [2]: 1 µM [rising, partial curve, poor fit] | AC50 [3]: 0.282 µM [rising, partial curve, poor fit] | max response [4]: 36.7%

COc1ccc(CNc2ccnc(-c3cccnc3)n2)c(OC)c1
max response [1]: 13.6% | AC50 [2]: 0.282 µM [rising, full curve] | AC50 [3]: 0.251 µM [rising, full curve] | max response [4]: 18.9%

N#CCCn1c(=O)cnc2cnc(Nc3ccccc3)nc21
max response [1]: 23% | AC50 [2]: 1 µM [rising, full curve, poor fit] | AC50 [3]: 0.891 µM [rising, full curve, poor fit] | max response [4]: 29.9%

c1ccc(Nc2ncncc2-c2ccc3c(c2)OCO3)cc1
max response [1]: 38.5% | AC50 [2]: 0.355 µM [rising, full curve] | AC50 [3]: 0.501 µM [rising, full curve] | max response [4]: 51.6%

NC(N)=NC(N)=Nc1ccccc1
max response [1]: -59.2% | AC50 [2]: 12.6 µM [falling, partial curve, poor fit] | AC50 [3]: 12.6 µM [falling, partial curve, poor fit] | max response [4]: -65.1%

Cc1noc(C)c1-c1nc(Nc2ccccc2)c2ccccc2n1
max response [1]: 41.1% | AC50 [2]: 0.631 µM [rising, full curve] | AC50 [3]: 0.501 µM [rising, full curve] | max response [4]: 49.6%

COc1cccc(Cn2c(=O)c(-c3cn(C)c4ccccc34)nc3cncnc32)c1
max response [1]: 33.4% | AC50 [2]: 0.355 µM [rising, full curve, poor fit] | AC50 [3]: 0.316 µM [rising, full curve] | max response [4]: 44.7%
